Source: PubChem BioAssay AID1963576 (National Center for Advancing Translational Sciences (NCATS), 2024)
Among all 46,000 compounds or so, about 60 (0.1%) were called active. Not shown: some 3% with an inconclusive outcome. The call rests on the fitted dose curve; in most records, active means well fitted inhibition curve with a large enough effect; inconclusive means small, poorly fitted or top-dose-only effect; inactive means no such curve, though single readings can be large or run the other way. The list shows a part of the results.

Assay: Primary qHTS assay for Inhibitors of ovarian cancer metastasis using an organotypic tumor microenvironment (TME) model. Further: nearly all actives have a fitted effect of over 65% in size.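 On activity change, negative = inhibition: plate controls were DMSO wells for no effect and tomatine positive control wells for full effect.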
Conditions: SKOV3ip1-GFP adhesion/invasion on 3D omental model, fluorescence; series mostly up to 45.8 µM; activity change, negative = inhibition: at the top concentration
Summary of the method: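 qHTS, 4-pt dose (0.36-46 umol/L); SKOV3ip1-GFP, 1,200 cells/well, no FBS; primary omental fibroblast/mesothelial co-culture 48 h pre-grown; 2 h RT + 16 h 37 C; PBS wash, 4% PFA; GFP count 488/509 nm.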

outcome, inactive:
CCOc1ccccc1NC(=O)N1CCc2cc(S(=O)(=O)N3CCC(C)CC3)ccc21
Cc1nn(C(=O)c2ccccc2F)c(C)c1S(=O)(=O)N1CCCCCC1
CNC(=O)Cn1cc(S(=O)(=O)Cc2ccccc2F)c2ccccc21
CCC(=O)N1CCc2cc(S(=O)(=O)CCC(=O)NCc3ccc(C)cc3)ccc21
CCCSc1nnc2c(n1)OC(c1sccc1C)Nc1ccccc1-2 (configuration not stated)
Cc1c(Cl)cccc1NC(=O)CN1C(=O)COc2ccc(S(=O)(=O)N3CCOCC3)cc21
Cc1ccc(C)c(N2CCN(C(=O)Cn3ncc4ccsc4c3=O)CC2)c1
Cc1cc2oc(C(=O)N(Cc3ccccc3F)C3CCS(=O)(=O)C3)c(C)c2cc1Cl (configuration not stated)
Oc1c(C(c2ccc(F)cc2)N2CCOCC2)sc2nc(-c3ccco3)nn12 (configuration not stated)
COc1ccccc1NC(=O)CN(C)S(=O)(=O)c1ccc2c(c1)c(=O)n(C)c(=O)n2C

Activity change, negative = inhibition, inactive:
CCCCCSc1nc2sc3c(c2c(=O)n1-c1ccccc1)CCN(C(C)=O)C3 -18.7%
COc1ccc(-c2oc3ncn4nc(COc5c(C)cccc5C)nc4c3c2-c2ccc(OC)cc2)cc1 6.59%
CCOc1ccc(CCNC(=O)c2cnc3sc(N4CCC(C)CC4)nn3c2=O)cc1 2.14%
COC(=O)c1c(-c2cccs2)csc1NC(=O)COc1c(C)ccc(C)c1C -4.25%
Cc1cccc(NC(=O)c2sc(-n3nc(C)c(Cc4ccc5c(c4)OCO5)c3C)nc2C)c1C -3.73%
Cc1ccc(Cn2c(SCc3ccc(C(=O)N4CCCCCC4)cc3)nc3ccncc32)cc1 -3.79%
Cc1ccc(NC(=O)CSc2ncc3c(n2)-c2ccc(Cl)cc2N(C)S3(=O)=O)cc1F 5.92%
COc1ccccc1NC(=O)c1sc2nc(N3CCOCC3)c3c(c2c1N)CC(C)(C)OC3 -11.6%
COc1ccc(-c2noc(CSc3nnc(C)n3-c3ccc(OC)cc3)n2)cc1 15.6%
Cn1nnnc1SCCCNCc1ccccc1OCc1ccccc1Cl -36.4%
COc1cc(OC)cc(N2C(=O)N(CC(=O)c3ccc(F)cc3)c3ccccc3S2(=O)=O)c1 -32.8%
COc1ccc(-c2noc(Cn3c(=O)c4ccccc4n(CC(=O)Nc4cccc(OC)c4)c3=O)n2)cc1 -4.59%
COc1ccc(CN2CCc3nc(SCC(=O)Nc4cc(C)cc(C)c4)[nH]c(=O)c3C2)cc1 3.03%
CCCOC(=O)CSc1ncnc2sc3c(c12)CCC(C)C3 (configuration not stated) -2.39%
COc1cccc(NC(=O)N2CCN3CCCCC3C2)c1 (configuration not stated) -24.3%
Cc1cccc(Cn2c(=O)n(CC3CCC(C(=O)N4CCOCC4)CC3)c(=O)c3sccc32)c1 (configuration not stated) -1.46%
CCOC(=O)c1ccc(NC(=O)c2oc(=O)c3ccccc3c2-c2ccccc2)cc1 -2.94%
CCOC(=O)c1c(NC(=O)c2cc3nc(-c4ccc(OC)cc4)cc(C(F)(F)F)n3n2)sc2c1CCC(C)C2 (configuration not stated) -5.41%
CCc1cccc(NC(=O)C(Cc2ccccc2)NS(=O)(=O)c2ccc3c(c2)oc(=O)n3C)c1 (configuration not stated) -2.51%
COc1ccccc1-c1nc2c(c(SCC(=O)Nc3c(C)cc(C)cc3C)n1)Cc1c(CO)cnc(C)c1O2 2.72%
O=C(NCc1cccs1)c1ccc(Cn2c(SCc3cccc(F)c3)nc3cccnc32)cc1 -19.9%
CCCCOC(=O)c1ccc(NC(=O)Cn2nnc3sc4c(c3c2=O)CCCC4)cc1 1.86%
CCOc1ccc(-c2cc(C(=O)N3CCN(S(=O)(=O)c4cc(Cl)ccc4OC)CC3)[nH]n2)cc1 -4.53%
CCc1cccc(NC(=O)c2cc3c(=O)n(Cc4ccc(OC)cc4)ccc3nc2C)c1 -1.38%
Cc1ccc(N2C(=O)N(CC(=O)C(C)(C)C)c3ccccc3S2(=O)=O)cc1C -2.12%
CCOc1ccc(CCNC(=O)c2ccc(Nc3nc4ccccc4n4nnnc34)cc2)cc1OCC -27.8%
CC(=O)N1CCCC1c1nc2ccccc2n1Cc1ccccc1 (configuration not stated) 2.87%
CCOc1ccc(C(=O)c2oc3ccccc3c2NC(=O)Cc2coc3cc(C)cc(C)c23)cc1 1.34%
CCc1ccc(Cn2c(CNS(=O)(=O)c3ccc(F)c(Cl)c3)nc3cccnc32)cc1 -1.02%
CC1=C(C(=O)OCC2CCCCC2)C(c2cccc(Cl)c2Cl)CC(=O)N1 (configuration not stated) 50.5%
Cc1ccc(C2CC(=O)Nc3cc4c(cc32)OCCO4)cc1 (configuration not stated) -5.65%
CCOC(=O)c1ccc(NC(=O)c2c(N3CCCC3=O)c3cc(OC)ccc3n2C)cc1 29.5%
CCc1ccc(-n2c(=O)c3c4c(sc3n(Cc3ccc(C)cc3)c2=O)CCC4)cc1 -8.92%
Cc1ccc(CNCc2ccccc2)s1 -3.53%
COc1ccc(CCNc2nccn(-c3ccc(C)c(C)c3)c2=O)cc1OC 5.41%
Cc1cc(C)cc(N2CC(c3nc(-c4cccc(Cl)c4)no3)CC2=O)c1 (configuration not stated) 2.63%
O=C(Cn1ncc2c([nH]c3ccccc32)c1=O)Nc1cccc(C(F)(F)F)c1 -1.44%
CC(=O)N1CCc2cc(S(=O)(=O)NC(Cc3ccccc3)C(=O)Nc3cccc(C)c3)ccc21 (configuration not stated) 5.96%
Cc1ccccc1CN1c2ccccc2S(=O)(=O)c2ccccc21 1.97%
O=C1C(Nc2ccccc2)=CC(c2ccc(Br)cc2)N1c1ccccc1 (configuration not stated) -13.7%
Cc1ccc(CCNC(=O)NCc2noc3ccccc23)cc1 1.43%
Cc1ccc(CN2CCC(CNC(=O)Nc3cccc(Cl)c3C)C2)cc1 (configuration not stated) 8.2%
O=C(NCc1ccccc1)c1ccc2nc(CCc3ccccc3)oc2c1 -9.21%
COc1ccc(C)cc1NC(=O)NCc1cccn1Cc1ccccc1 -15.4%
COc1ccc(N2CCN(C(CNC(=O)C(=O)NCCc3ccccc3)c3cccnc3)CC2)cc1 (configuration not stated) 0.266%
COc1cc(OC)cc(-c2nc(-c3cccc(C)c3)no2)c1 8.84%
O=C1CN2Cc3c(ccc(Cl)c3Cl)N=C2N1 1.09%
O=C(COc1ccc(Cl)cc1)Nc1nnc2n1CCS2 -19.8%
Cc1c(CNC2CCCCCC2)c(C(=O)O)c(C)n1Cc1ccc(F)cc1Cl 6.31%
CCOCCCN(C(=O)Nc1ccc(Cl)cc1)C1CCN(C(C)=O)CC1 -16.7%
CC1CCCN(S(=O)(=O)c2ccc3[nH]c(=O)cc(C(=O)NCCc4ccc(Cl)cc4)c3c2)C1 (configuration not stated) 4.37%
COc1ccc(C)cc1NC(=O)CSc1nc2ccccc2nc1N1CCOCC1 1.88%
